# Results reported in PMC12820563, “FoxP3 forms a head-to-head dimer in vivo and stabilizes its multimerization on adjacent microsatellites”.
# Some of the results follow.
# Target: T1, MBP-FoxP1dN (Mus musculus, UniProt P58462 326-579)
# T1 sequence: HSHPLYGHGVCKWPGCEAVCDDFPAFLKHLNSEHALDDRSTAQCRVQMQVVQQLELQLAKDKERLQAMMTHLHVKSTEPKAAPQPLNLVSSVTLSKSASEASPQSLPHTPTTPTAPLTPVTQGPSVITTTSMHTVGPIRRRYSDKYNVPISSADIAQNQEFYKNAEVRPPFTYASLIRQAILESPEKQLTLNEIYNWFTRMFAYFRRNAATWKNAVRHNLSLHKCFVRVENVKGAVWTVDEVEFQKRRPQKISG
# Assay: PD-seq (MBP pull-down with sequencing); 20 mM Tris-HCl pH 7.5, 100 mM NaCl, 1.5 mM MgCl2, 0.4 uM protein, 0.1 uM dsDNA library, 30 min, room temperature, amylose pull-down; high values mean tight binding
# Conditions: protein: recombinant; tags: His6-MBP; chain copies: 2; dsDNA, one strand shown
# How it was run: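 Mouse FoxP3 or FoxP1 fragment lacking the N-terminus, His6-MBP-tagged and expressed in E. coli, was incubated at 0.4 µM with 0.1 µM Klenow-filled degenerate double-stranded DNA library for 30 min at room temperature in Tris pH 7.5 buffer with NaCl and MgCl2. Complexes captured on amylose resin were washed three times and their DNA sequenced on Illumina. Binding is reads-per-million enrichment of pull-down over input, replicates pooled.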
row,Sequence,binding signal
1,GATGATTGTTCTCCCAGCTGATGAATTGGCCACTTCGAGTAAACAAATTTTCCTAATCTTTCTGTTCAAGCGCCATCTAC,0.9 RPM ratio (pull-down/input)
2,GATGATTGTTCTCCCAGCTGATGAATTAAAATTATCGAGTAAACAAATTTTCCTAATCTTTCTGTTCAAGCGCCATCTAC,0.998 RPM ratio (pull-down/input)
3,GATGATTGTTCTCCCAGCTGATGAATTCAATGGTTCGAGTAAACAAATTTTCCTAATCTTTCTGTTCAAGCGCCATCTAC,0.854 RPM ratio (pull-down/input)
4,GATGATTGTTCTCCCAGCTGATGAATTTCCTAATTCGAGTAAACAAATTTTCCTAATCTTTCTGTTCAAGCGCCATCTAC,0.852 RPM ratio (pull-down/input)
5,GATGATTGTTCTCCCAGCTGATGAATTGAGGATCTCGAGTAAACAAATTTTCCTAATCTTTCTGTTCAAGCGCCATCTAC,0.758 RPM ratio (pull-down/input)
6,GATGATTGTTCTCCCAGCTGATGAATTGGTAGCTTCGAGTAAACAAATTTTCCTAATCTTTCTGTTCAAGCGCCATCTAC,0.901 RPM ratio (pull-down/input)
7,GATGATTGTTCTCCCAGCTGATGAATTCAACTAATCGAGTAAACAAATTTTCCTAATCTTTCTGTTCAAGCGCCATCTAC,1.02 RPM ratio (pull-down/input)
8,GATGATTGTTCTCCCAGCTGATGAATTGCCACTATCGAGTAAACAAATTTTCCTAATCTTTCTGTTCAAGCGCCATCTAC,1.14 RPM ratio (pull-down/input)
9,GATGATTGTTCTCCCAGCTGATGAATTTTTACGATCGAGTAAACAAATTTTCCTAATCTTTCTGTTCAAGCGCCATCTAC,0.896 RPM ratio (pull-down/input)
10,GATGATTGTTCTCCCAGCTGATGAATTCATGGAATCGAGTAAACAAATTTTCCTAATCTTTCTGTTCAAGCGCCATCTAC,1.07 RPM ratio (pull-down/input)
11,GATGATTGTTCTCCCAGCTGATGAATTCCCTCGATCGAGTAAACAAATTTTCCTAATCTTTCTGTTCAAGCGCCATCTAC,0.83 RPM ratio (pull-down/input)
12,GATGATTGTTCTCCCAGCTGATGAATTGAAAGTTTCGAGTAAACAAATTTTCCTAATCTTTCTGTTCAAGCGCCATCTAC,0.949 RPM ratio (pull-down/input)
13,GATGATTGTTCTCCCAGCTGATGAATTCCCTGTTTCGAGTAAACAAATTTTCCTAATCTTTCTGTTCAAGCGCCATCTAC,0.907 RPM ratio (pull-down/input)
14,GATGATTGTTCTCCCAGCTGATGAATTTGCATTATCGAGTAAACAAATTTTCCTAATCTTTCTGTTCAAGCGCCATCTAC,1.49 RPM ratio (pull-down/input)
15,GATGATTGTTCTCCCAGCTGATGAATTAGCAAAGTCGAGTAAACAAATTTTCCTAATCTTTCTGTTCAAGCGCCATCTAC,0.876 RPM ratio (pull-down/input)
16,GATGATTGTTCTCCCAGCTGATGAATTTTGAATTTCGAGTAAACAAATTTTCCTAATCTTTCTGTTCAAGCGCCATCTAC,0.984 RPM ratio (pull-down/input)
17,GATGATTGTTCTCCCAGCTGATGAATTAGCACAGTCGAGTAAACAAATTTTCCTAATCTTTCTGTTCAAGCGCCATCTAC,0.971 RPM ratio (pull-down/input)
18,GATGATTGTTCTCCCAGCTGATGAATTGGCCTTCTCGAGTAAACAAATTTTCCTAATCTTTCTGTTCAAGCGCCATCTAC,0.772 RPM ratio (pull-down/input)
19,GATGATTGTTCTCCCAGCTGATGAATTGTCCATGTCGAGTAAACAAATTTTCCTAATCTTTCTGTTCAAGCGCCATCTAC,0.983 RPM ratio (pull-down/input)
20,GATGATTGTTCTCCCAGCTGATGAATTTGTGTACTCGAGTAAACAAATTTTCCTAATCTTTCTGTTCAAGCGCCATCTAC,2.09 RPM ratio (pull-down/input)

row,Sequence,binding signal
1,GATGATTGTTCTCCCAGCTGATGAATTTTAATGATCGAGTAAACAAATTTTCCTAATCTTTCTGTTCAAGCGCCATCTAC,1.06 RPM ratio (pull-down/input)
2,GATGATTGTTCTCCCAGCTGATGAATTATACTCTTCGAGTAAACAAATTTTCCTAATCTTTCTGTTCAAGCGCCATCTAC,0.961 RPM ratio (pull-down/input)
3,GATGATTGTTCTCCCAGCTGATGAATTTTGCTTATCGAGTAAACAAATTTTCCTAATCTTTCTGTTCAAGCGCCATCTAC,2.09 RPM ratio (pull-down/input)
4,GATGATTGTTCTCCCAGCTGATGAATTGTTTTTATCGAGTAAACAAATTTTCCTAATCTTTCTGTTCAAGCGCCATCTAC,2.19 RPM ratio (pull-down/input)
5,GATGATTGTTCTCCCAGCTGATGAATTGACGTTGTCGAGTAAACAAATTTTCCTAATCTTTCTGTTCAAGCGCCATCTAC,1.35 RPM ratio (pull-down/input)
6,GATGATTGTTCTCCCAGCTGATGAATTTGGAGGTTCGAGTAAACAAATTTTCCTAATCTTTCTGTTCAAGCGCCATCTAC,0.79 RPM ratio (pull-down/input)
7,GATGATTGTTCTCCCAGCTGATGAATTCGGAGGGTCGAGTAAACAAATTTTCCTAATCTTTCTGTTCAAGCGCCATCTAC,0.677 RPM ratio (pull-down/input)
8,GATGATTGTTCTCCCAGCTGATGAATTGGGGATGTCGAGTAAACAAATTTTCCTAATCTTTCTGTTCAAGCGCCATCTAC,0.865 RPM ratio (pull-down/input)
9,GATGATTGTTCTCCCAGCTGATGAATTGATTACGTCGAGTAAACAAATTTTCCTAATCTTTCTGTTCAAGCGCCATCTAC,1.39 RPM ratio (pull-down/input)
10,GATGATTGTTCTCCCAGCTGATGAATTGCCATAGTCGAGTAAACAAATTTTCCTAATCTTTCTGTTCAAGCGCCATCTAC,0.958 RPM ratio (pull-down/input)
11,GATGATTGTTCTCCCAGCTGATGAATTTGACACATCGAGTAAACAAATTTTCCTAATCTTTCTGTTCAAGCGCCATCTAC,0.966 RPM ratio (pull-down/input)
12,GATGATTGTTCTCCCAGCTGATGAATTCATAGGGTCGAGTAAACAAATTTTCCTAATCTTTCTGTTCAAGCGCCATCTAC,0.779 RPM ratio (pull-down/input)
13,GATGATTGTTCTCCCAGCTGATGAATTTCCCATTTCGAGTAAACAAATTTTCCTAATCTTTCTGTTCAAGCGCCATCTAC,0.825 RPM ratio (pull-down/input)
14,GATGATTGTTCTCCCAGCTGATGAATTCCTTTAATCGAGTAAACAAATTTTCCTAATCTTTCTGTTCAAGCGCCATCTAC,0.94 RPM ratio (pull-down/input)
15,GATGATTGTTCTCCCAGCTGATGAATTCCACTGTTCGAGTAAACAAATTTTCCTAATCTTTCTGTTCAAGCGCCATCTAC,0.892 RPM ratio (pull-down/input)
16,GATGATTGTTCTCCCAGCTGATGAATTGGACGGTTCGAGTAAACAAATTTTCCTAATCTTTCTGTTCAAGCGCCATCTAC,0.811 RPM ratio (pull-down/input)
17,GATGATTGTTCTCCCAGCTGATGAATTGGAGTAATCGAGTAAACAAATTTTCCTAATCTTTCTGTTCAAGCGCCATCTAC,1.33 RPM ratio (pull-down/input)
18,GATGATTGTTCTCCCAGCTGATGAATTTTACCTTTCGAGTAAACAAATTTTCCTAATCTTTCTGTTCAAGCGCCATCTAC,0.862 RPM ratio (pull-down/input)
19,GATGATTGTTCTCCCAGCTGATGAATTTAGAACGTCGAGTAAACAAATTTTCCTAATCTTTCTGTTCAAGCGCCATCTAC,0.984 RPM ratio (pull-down/input)
20,GATGATTGTTCTCCCAGCTGATGAATTTTGTTTTTCGAGTAAACAAATTTTCCTAATCTTTCTGTTCAAGCGCCATCTAC,2.75 RPM ratio (pull-down/input)
